Source: the supplement of paper PMC10126150
Values marked as one replicate rest on one cluster of the flow cell; about a third of the high ones do not repeat.

Tested on: ATP
Experiment: switch fluorescence ratio, 500 uM ATP over buffer (Cy3 cluster intensity, sum of 5 cycles each) (fold (ratio)); higher = stronger signal-on switching upon ATP binding; sequences stand for … in TCGTCGGCAGCGTCAGATGTGTATAAGAGACAGTTTTTTTTTTTTTTTTTTTTTTTTT…TC
Conditions: aptamer strand: ATP DNA aptamer (quencher-CACCTGGGGGAGTATTGCGGAGGAAGG + anchor), 100 nM annealed; ATP concentration: 500 uM; one replicate
Outline: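 Five buffer/ATP imaging cycles were run on Cy3-labelled switching-strand clusters on a modified Illumina MiSeq flow-cell, with NaOH stripping and re-annealing between cycles. In each cycle, clusters annealed to 100 nM quencher-labelled ATP aptamer were imaged in selection buffer, then after 15 min with 500 uM ATP at 22 °C. Per cluster, the fluorescence ratio is summed target-cycle over summed buffer-cycle Cy3 intensity, averaged per switch-domain sequence. Only clusters within 100-1000 RFU were kept.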
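Also: ATP exposure 15 min at 22 °C before imaging.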

GTTAGAAGTT gave a switch fluorescence ratio of 0.956.

Work on CGCGAGGTCC yielded a switch fluorescence ratio of 1.1.

In the case of GTAATTATAA, the switch fluorescence ratio is reported as 1.01.

CCGTCTACGT showed a switch fluorescence ratio of 1.05.

In the case of ATCATCAGTA, the switch fluorescence ratio is reported as 0.984.

With CCAAGTTTCC the switch fluorescence ratio was 1.18.

ACTGACCGTT showed a switch fluorescence ratio of 1.19.

CGTACCGCTA gave a switch fluorescence ratio of 2.49.

GTGGTTAAAT was tested, and the switch fluorescence ratio was 1.

With GGAGTGAAT the switch fluorescence ratio was 1.02.

With TGGGCAGCCT the switch fluorescence ratio was 0.966.

For TGAGAATGTC, the switch fluorescence ratio was 1.05.

For AGATTCGGAT, the switch fluorescence ratio was 1.02.

ACGGTGATTT gave a switch fluorescence ratio of 1.05.

CCTGTGCGG was tested, and the switch fluorescence ratio was 1.43.

TCTTTAAGTA gave a switch fluorescence ratio of 0.969.

CCGGCCACCA showed a switch fluorescence ratio of 1.16.

In the case of ATTTTCGAT, the switch fluorescence ratio is reported as 0.997.

GAGGTTTTAC showed a switch fluorescence ratio of 1.01.

CCATAATTAC showed a switch fluorescence ratio of 1.24.

Work on AGGGCCGGCA yielded a switch fluorescence ratio of 0.993.

CATGTCACGT showed a switch fluorescence ratio of 1.03.

CCATGCCGTA showed a switch fluorescence ratio of 1.05.

CCAGCGAACC showed a switch fluorescence ratio of 1.47.

In the case of TCAGACTCTA, the switch fluorescence ratio is reported as 1.01.

For AATGTGACCG, the switch fluorescence ratio was 1.03.

GCTGTTCAGT showed a switch fluorescence ratio of 0.978.

GATCTTGGCT gave a switch fluorescence ratio of 0.999.

TATTGTTGGT was tested, and the switch fluorescence ratio was 1.

In the case of TTCTTAGGAT, the switch fluorescence ratio is reported as 1.04.

TCGGGCTTCG showed a switch fluorescence ratio of 1.

TAACCCCTGG gave a switch fluorescence ratio of 1.17.

CGTCCTCCCT showed a switch fluorescence ratio of 1.15.

With TTATAGGATG the switch fluorescence ratio was 0.994.

TTAAACAAT gave a switch fluorescence ratio of 1.04.

In the case of GGTGCTAGCC, the switch fluorescence ratio is reported as 1.01.

ATTCAGTATG gave a switch fluorescence ratio of 0.969.

GTGGGTGACA was tested, and the switch fluorescence ratio was 0.994.

For ATGTGTTTAG, the switch fluorescence ratio was 1.

With CTATGGGTAC the switch fluorescence ratio was 1.02.

Work on GATACGCGAT yielded a switch fluorescence ratio of 2.21.

Sequence GTCGCATTGA has a switch fluorescence ratio of 1.02.

Work on TAGAGGTATC yielded a switch fluorescence ratio of 1.07.

Sequence ATGATCGGTT has a switch fluorescence ratio of 0.97.

CGTTAGCTTC was tested, and the switch fluorescence ratio was 1.07.

AGAGTACTCC was tested, and the switch fluorescence ratio was 1.07.

CGATTAGCAA was tested, and the switch fluorescence ratio was 1.73.

Sequence CCGCCGGGAA has a switch fluorescence ratio of 1.5.

ATGGTAGTGA gave a switch fluorescence ratio of 0.996.

TCGCTTGAGT showed a switch fluorescence ratio of 0.99.

Work on CGTGACTTTG yielded a switch fluorescence ratio of 1.07.

With AGAAAGTCGG the switch fluorescence ratio was 1.01.

CTATCTGAGG gave a switch fluorescence ratio of 1.02.

Work on AACGCTACGA yielded a switch fluorescence ratio of 1.68.

For TAGAATGGGC, the switch fluorescence ratio was 0.983.

In the case of TTTGATCATG, the switch fluorescence ratio is reported as 1.02.

TGAGAGCATG gave a switch fluorescence ratio of 1.01.

Work on TTCCATCGGT yielded a switch fluorescence ratio of 0.964.

GGTGAGTGTA gave a switch fluorescence ratio of 0.987.

Sequence GTTGTAAAAG has a switch fluorescence ratio of 1.

GTGGACATGA gave a switch fluorescence ratio of 1.03.

Work on GACGTAATTG yielded a switch fluorescence ratio of 1.03.

TCAACGAGCG gave a switch fluorescence ratio of 0.987.

Sequence TTGTGCTTAT has a switch fluorescence ratio of 0.975.

TACGTGGCG was tested, and the switch fluorescence ratio was 1.04.

In the case of GAGTGTGAAT, the switch fluorescence ratio is reported as 0.992.

GTGCAGTC showed a switch fluorescence ratio of 1.45.

AGCTAAAATT was tested, and the switch fluorescence ratio was 0.997.

For TCCCAGAGA, the switch fluorescence ratio was 0.976.

AGTGTTCAAG was tested, and the switch fluorescence ratio was 0.97.

GTTCCTGATC was tested, and the switch fluorescence ratio was 1.13.

With AGACCATATG the switch fluorescence ratio was 1.01.

ATTGAAGATC was tested, and the switch fluorescence ratio was 0.957.

For TAATTTGCTA, the switch fluorescence ratio was 0.992.

Work on GGGGCGGCTG yielded a switch fluorescence ratio of 0.952.

GGTCTATACG showed a switch fluorescence ratio of 1.01.

In the case of TTTCTGGCAG, the switch fluorescence ratio is reported as 0.999.

Work on TGGAGCCGCA yielded a switch fluorescence ratio of 0.991.

With GGGGTTGCCT the switch fluorescence ratio was 0.959.

TAGTCCCG showed a switch fluorescence ratio of 1.

Work on AGACCGGC yielded a switch fluorescence ratio of 1.02.

For TTTCTATAT, the switch fluorescence ratio was 1.

For CAGAAGAAGA, the switch fluorescence ratio was 0.998.

In the case of CACCGGTCAC, the switch fluorescence ratio is reported as 1.27.

GCTAACCTTT was tested, and the switch fluorescence ratio was 1.03.

ACTTCAATCC gave a switch fluorescence ratio of 1.01.

Work on TAAGGGCATG yielded a switch fluorescence ratio of 0.982.

TAGGGCTCA showed a switch fluorescence ratio of 1.

Work on GGTGACGCTT yielded a switch fluorescence ratio of 1.02.

CACTTGCAGG showed a switch fluorescence ratio of 1.03.

With GTCAACCTTT the switch fluorescence ratio was 1.

With CGGTCAGGTG the switch fluorescence ratio was 3.02.

With GGGTTACG the switch fluorescence ratio was 1.01.

AATAGTCCTC was tested, and the switch fluorescence ratio was 0.996.

In the case of CGTATTCCGT, the switch fluorescence ratio is reported as 1.01.

With CAGCGGTGGA the switch fluorescence ratio was 1.05.

With TCCAGGTTAA the switch fluorescence ratio was 1.06.

Work on AAGCTCATTC yielded a switch fluorescence ratio of 0.934.

With CTTGCTTGGA the switch fluorescence ratio was 1.02.

With CAGGAAAAAG the switch fluorescence ratio was 1.02.

TGGTTGAGCC was tested, and the switch fluorescence ratio was 1.02.

GCGAAACCTT was tested, and the switch fluorescence ratio was 1.35.

CTTTTTAGTT gave a switch fluorescence ratio of 0.961.

For GCTGGGCTGT, the switch fluorescence ratio was 0.999.

With TAAGGATAAG the switch fluorescence ratio was 0.972.

GCGTTTGCCA gave a switch fluorescence ratio of 0.973.

TAATACGGAA showed a switch fluorescence ratio of 1.19.

For GGTCCCCTGA, the switch fluorescence ratio was 0.995.

CACACAGCCT was tested, and the switch fluorescence ratio was 1.16.

Work on TCCAAGTTCG yielded a switch fluorescence ratio of 1.02.

In the case of TTACATGGT, the switch fluorescence ratio is reported as 1.02.

Work on ACAGAATAGA yielded a switch fluorescence ratio of 1.01.

In the case of ATAGCAAAAA, the switch fluorescence ratio is reported as 2.96.

With GTGTTGGGAC the switch fluorescence ratio was 0.951.

GTTGGTGAGA gave a switch fluorescence ratio of 0.929.

For GTTAGTATGG, the switch fluorescence ratio was 0.968.

With TTTCAATAAA the switch fluorescence ratio was 1.27.

CGCGGAATGG was tested, and the switch fluorescence ratio was 1.06.

In the case of AAAGGCAGTT, the switch fluorescence ratio is reported as 0.99.

Work on GTATCGAAAT yielded a switch fluorescence ratio of 1.04.

TTGTTGACAG was tested, and the switch fluorescence ratio was 0.939.

Sequence TACGGAAAAC has a switch fluorescence ratio of 1.31.

Work on TGTGGCTGGT yielded a switch fluorescence ratio of 0.959.

Sequence GATCCGTATA has a switch fluorescence ratio of 1.22.

Sequence TGGCCGATTG has a switch fluorescence ratio of 0.999.

With ACCTATAGAT the switch fluorescence ratio was 1.

GCGTAACGCA was tested, and the switch fluorescence ratio was 1.03.

In the case of GCCTCTTATG, the switch fluorescence ratio is reported as 1.01.

Work on AGACCATCCT yielded a switch fluorescence ratio of 1.34.

CGATCGTCCA showed a switch fluorescence ratio of 1.01.

In the case of GATCGACGCA, the switch fluorescence ratio is reported as 1.71.

In the case of CGGGAGTGTT, the switch fluorescence ratio is reported as 0.977.

Work on GCGCATCCAT yielded a switch fluorescence ratio of 1.01.

TCTGAGTTGC gave a switch fluorescence ratio of 0.995.

In the case of TAAGTTGACA, the switch fluorescence ratio is reported as 1.

In the case of GGTCACTGAA, the switch fluorescence ratio is reported as 0.957.

For AATAGGAGC, the switch fluorescence ratio was 0.978.

With GCGTCTCATC the switch fluorescence ratio was 1.02.

GGGAGTTCAA was tested, and the switch fluorescence ratio was 0.999.

Sequence CGAAAGAATA has a switch fluorescence ratio of 4.6.

In the case of GTAGATTCAC, the switch fluorescence ratio is reported as 1.01.

Work on TCTCAGAGAG yielded a switch fluorescence ratio of 1.03.

For TAGAAAATCA, the switch fluorescence ratio was 1.12.

In the case of ACCAGCGAGG, the switch fluorescence ratio is reported as 0.993.

Work on AAGGCGTGAT yielded a switch fluorescence ratio of 1.02.

With TTGGCACTCG the switch fluorescence ratio was 1.02.

AGTGGGGGCC gave a switch fluorescence ratio of 0.975.

Sequence GATCTATATG has a switch fluorescence ratio of 0.941.

For ATCGTAGTAT, the switch fluorescence ratio was 0.999.

With TGGCGGGTCA the switch fluorescence ratio was 1.01.

Work on ATACACGGTT yielded a switch fluorescence ratio of 1.04.

GGCCTCTGCG showed a switch fluorescence ratio of 1.06.

Sequence GGGAGCGGGC has a switch fluorescence ratio of 0.851.
